Experimental findings from the antibiotic and cytotoxicity screens of Wong et al. (2023) are described below.

Each structure is given as a SMILES string. This is one part of the list.

This assay deals with S. aureus RN4220. Put plainly: growth inhibition call (relative growth <= 0.2). Particulars: 50 µM.
With `O=C(CCc1ccc(O)cc1)c1c(O)cc(O)cc1O`, the growth inhibition call was “inactive”.

Consider `CC(C)NC(=O)Nc1ccc2c(c1)C(=O)N([C@H](C)CO)C[C@@H](C)[C@H](CN(C)Cc1ccc(Cl)c(Cl)c1)OCCCC[C@H](C)O2`, for which the growth inhibition call is “inactive”.

As for `C[C@@H]1CN([C@H](C)CO)C(=O)c2cc(NS(=O)(=O)c3ccccc3)ccc2O[C@@H](C)CCCCO[C@H]1CN(C)Cc1ccc(C(F)(F)F)cc1`, the growth inhibition call is “inactive”.

Regarding `C[C@@H]1CN([C@H](C)CO)C(=O)c2cc(NC(=O)CCC(F)(F)F)ccc2O[C@@H]1CN(C)Cc1ccc(C(=O)Nc2ccccc2N)cc1`, the growth inhibition call is “inactive”.

Regarding `O=C(C[C@@H]1C[C@@H]2c3cc(NS(=O)(=O)c4ccc(F)cc4)ccc3O[C@@H]2[C@H](CO)O1)NC1CCCCC1`, the growth inhibition call is “inactive”.

`COCC#Cc1ccc2c(c1)O[C@H](CN(C)C(=O)Nc1ccccc1F)[C@@H](C)CN([C@@H](C)CO)S2(=O)=O`: the growth inhibition call is “inactive”.

As to `COc1ccc(CN(C)C[C@H]2OCCCC[C@H](C)Oc3ccc(NC(=O)Nc4ccc5c(c4)OCO5)cc3C(=O)N([C@H](C)CO)C[C@@H]2C)cc1`, the growth inhibition call is “inactive”.

On to `C[C@H]1CN([C@@H](C)CO)C(=O)c2cccc(NC(=O)c3nc4ccccc4s3)c2O[C@@H]1CN(C)Cc1ccc(C(F)(F)F)cc1`, for which the growth inhibition call is “inactive”.

On to `N#Cc1ccc(Oc2ccccn2)cc1`, for which the growth inhibition call was “inactive”.

Take `COCC(=O)Nc1ccc2c(c1)C(=O)N(C)[C@H]1CC[C@H](CC(=O)NCc3ccccc3Cl)O[C@H]1CO2`: the growth inhibition call is “inactive”.

`CO[C@@H]1CN(C)C(=O)c2cc(NS(=O)(=O)CC(F)(F)F)ccc2OC[C@@H](C)N(C(=O)NC(C)C)C[C@@H]1C`: the growth inhibition call is “inactive”.

On to `C[C@@H]1CN([C@@H](C)CO)C(=O)c2cc(NC(=O)C3CCCCC3)ccc2O[C@@H](C)CCCCO[C@@H]1CN(C)C(=O)c1ccncc1`, for which the growth inhibition call was “inactive”.

Consider `COCC(=O)N(C)C[C@H]1Oc2cc(-c3ccc(OC)cc3)ccc2S(=O)(=O)N([C@@H](C)CO)C[C@@H]1C`, for which the growth inhibition call is “inactive”.

Regarding `C[C@H](CO)N1C[C@H](C)[C@@H](CN(C)Cc2ccc(C(=O)Nc3ccccc3N)cc2)Oc2ccc(NS(C)(=O)=O)cc2CC1=O`, the growth inhibition call was “inactive”.

With `C[C@@H]1CN([C@H](C)CO)C(=O)c2cc(NC(=O)CCCN(C)C)ccc2O[C@@H]1CN(C)Cc1ccncc1`, the growth inhibition call is “inactive”.

As to `C[C@H](CO)N1C[C@H](C)[C@@H](CN(C)S(=O)(=O)c2ccc(F)cc2)Oc2c(NS(C)(=O)=O)cccc2C1=O`, the growth inhibition call was “inactive”.

On to `C[C@@H]1CN([C@H](C)CO)C(=O)c2cccc(NS(=O)(=O)c3cn(C)cn3)c2O[C@H]1CN(C)S(=O)(=O)c1cccs1`, for which the growth inhibition call is “inactive”.

In the case of `Cc1noc(C)c1NC(=O)Nc1cccc2c1O[C@H](CN(C)Cc1ccc(Cl)c(Cl)c1)[C@H](C)CN([C@@H](C)CO)C2=O`, the growth inhibition call is “inactive”.

On to `C[C@H]1CN([C@@H](C)CO)C(=O)Cc2cc(NC(=O)CCN3CCOCC3)ccc2O[C@@H]1CN(C)S(=O)(=O)c1ccc(F)cc1`, for which the growth inhibition call was “inactive”.

As to `C[C@H](CO)N1C[C@H](C)[C@H](CN(C)S(C)(=O)=O)Oc2ccc(NC(=O)c3ccncc3)cc2CC1=O`, the growth inhibition call is “inactive”.

For `COC1=C2C[C@H](C)C[C@H](OC)[C@@H](O)[C@H](C)/C=C(\C)[C@H](OC(N)=O)[C@H](OC)/C=C/C=C(\C)C(=O)NC(=CC1=O)C2=O`, the growth inhibition call was “inactive”.

As to `Cc1noc(C)c1NC(=O)N(C)C[C@@H]1Oc2ncc(C#CCN(C)C)cc2C(=O)N([C@@H](C)CO)C[C@H]1C`, the growth inhibition call is “inactive”.

As for `OS(=O)(=O)c1ccc(cc1)/C/1=C\2/N/C(=C(\C3=N/C(=C(/c4ccc(cc4)S(=O)(=O)O)c4ccc([nH]4)/C(=C\4/C=CC1=N4)c1ccc(cc1)S(=O)(=O)O)C=C3)c1ccc(cc1)S(=O)(=O)O)C=C2`, the growth inhibition call was “inactive”.

On to `CCc1nc2ccccc2nc1CC`, for which the growth inhibition call is “inactive”.

Consider `C[C@@H]1CN([C@H](C)CO)C(=O)c2cccc(NS(=O)(=O)c3ccc(F)cc3)c2O[C@@H]1CN(C)Cc1ccncc1`, for which the growth inhibition call is “inactive”.

For the molecule `COc1ccc(S(=O)(=O)N(C)C[C@H]2OCCCC[C@H](C)Oc3ccc(NS(C)(=O)=O)cc3C(=O)N([C@@H](C)CO)C[C@H]2C)cc1`, the growth inhibition call was “inactive”.

Take `C[C@@H]1CN([C@@H](C)CO)C(=O)c2cc(NS(=O)(=O)c3ccc(F)cc3)ccc2O[C@@H](C)CCCCO[C@H]1CN(C)Cc1ccc(C(=O)O)cc1`: the growth inhibition call was “inactive”.

For the molecule `CO[C@@H]1CN(C)C(=O)c2cc(NS(=O)(=O)CC(F)(F)F)ccc2OC[C@H](C)N(Cc2cccnc2)C[C@@H]1C`, the growth inhibition call is “inactive”.

For `N#C[C@@H]1C[C@@H]2C[C@@H]2N1C(=O)[C@@H](N)[C@@]12C[C@@H]3C[C@@H](C[C@@](O)(C3)C1)C2`, the growth inhibition call is “inactive”.
